# Experimental data as given in the supplement of paper PMC4604168 (melanoma cell lines).
# The list shows a part of the results. Repeats are few or missing, and single values can be far off.
# Key:
# Assay in all cases: cell count relative to DMSO control; melanoma cells; higher = more viable cells
# Details in all cases: library dose: low library concentration; 72 h
# [1] = tested on: MZ2-MEL
# [2] = tested on: MeWo
# [3] = tested on: RPMI7951
# [4] = tested on: RVH-421
# [5] = tested on: SkMel28
# [6] = tested on: SkMel2
# [7] = tested on: SkMel30
# [8] = tested on: SkMel5
# [9] = tested on: UACC257
# [10] = tested on: UACC62
# [11] = tested on: WM115
# [12] = tested on: WM1716
# [13] = tested on: WM1745
# [14] = tested on: WM3526
# [15] = tested on: WM3619
# [16] = tested on: WM451Lu
# 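Further: cell number obtained by counting DAPI-stained nuclei in high-throughput microscope images with image analysis software, screen run in 1,536-well plates.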
SMILES,cell count [1] [%],cell count [2] [%],cell count [3] [%],cell count [4] [%],cell count [5] [%],cell count [6] [%],cell count [7] [%],cell count [8] [%],cell count [9] [%],cell count [10] [%],cell count [11] [%],cell count [12] [%],cell count [13] [%],cell count [14] [%],cell count [15] [%],cell count [16] [%]
"Cc1cc(Nc2cc(N3CCN(C)CC3)nc(Sc3ccc(NC(=O)C4CC4)cc3)n2)n[nH]1 [Tozasertib] + COc1cc(N2CCC(N3CCN(C)CC3)CC2)ccc1Nc1ncc(Cl)c(Nc2ccccc2S(=O)(=O)C(C)C)n1 [NVP-TAE684] (first compound 0.006 µM, partner dose 0.08 µM)",96.8,87.7,89.4,104,86.1,101,83.1,97.2,67.9,87,87.6,89.6,73.4,82.7,88.8,93.8
"CC[C@]1(O)C[C@H]2CN(CCc3c([nH]c4ccccc34)[C@@](C(=O)OC)(c3cc4c(cc3OC)N(C=O)[C@H]3[C@@](O)(C(=O)OC)[C@H](OC(C)=O)[C@]5(CC)C=CCN6CC[C@]43[C@@H]65)C2)C1 [vincristine] + COc1ccc(COc2ccc(Cc3cnc(N)nc3N)cc2OC)cc1 [GW2580] (first compound 0.0001 µM, partner dose 1 µM)",97.4,106,113,90.1,97.7,108,98.2,101,92.7,107,78.2,82.8,110,73.8,90,94.5
"CC[C@]1(O)C[C@H]2CN(CCc3c([nH]c4ccccc34)[C@@](C(=O)OC)(c3cc4c(cc3OC)N(C=O)[C@H]3[C@@](O)(C(=O)OC)[C@H](OC(C)=O)[C@]5(CC)C=CCN6CC[C@]43[C@@H]65)C2)C1 [vincristine] + CN(NC(=O)CC(=O)NN(C)C(=S)c1ccccc1)C(=S)c1ccccc1 [STA4783] (first compound 0.0001 µM, partner dose 0.006 µM)",87.4,77.8,44.2,81.3,61.2,91.8,52.9,80.7,45.5,48,32.3,36.6,54.7,50.1,37.1,49.9
"CC[C@]1(O)C[C@H]2CN(CCc3c([nH]c4ccccc34)[C@@](C(=O)OC)(c3cc4c(cc3OC)N(C=O)[C@H]3[C@@](O)(C(=O)OC)[C@H](OC(C)=O)[C@]5(CC)C=CCN6CC[C@]43[C@@H]65)C2)C1 [vincristine] + COc1cc(N2CCC(N3CCN(C)CC3)CC2)ccc1Nc1ncc(Cl)c(Nc2ccccc2S(=O)(=O)C(C)C)n1 [NVP-TAE684] (first compound 0.0001 µM, partner dose 0.08 µM)",109,64.9,49.3,86.6,61.2,95.4,55.2,73.9,37.4,38,39,45.1,79.8,63.1,56.5,51.9
"Cc1cc(Nc2cc(N3CCN(C)CC3)nc(Sc3ccc(NC(=O)C4CC4)cc3)n2)n[nH]1 [Tozasertib] + COc1ccc(-c2ccc3c(N4CCOCC4)nc(N4C[C@@H](C)O[C@@H](C)C4)nc3n2)cc1CO [KU0063794] (first compound 0.006 µM, partner dose 0.02 µM)",106,97.1,90.3,96.1,79.9,98.1,87.2,104,82.5,85.8,77.5,86.7,91.5,83.4,109,93.4
"CC[C@]1(O)C[C@H]2CN(CCc3c([nH]c4ccccc34)[C@@](C(=O)OC)(c3cc4c(cc3OC)N(C=O)[C@H]3[C@@](O)(C(=O)OC)[C@H](OC(C)=O)[C@]5(CC)C=CCN6CC[C@]43[C@@H]65)C2)C1 [vincristine] + O=C(Nc1ccccc1)c1cc([N+](=O)[O-])ccc1Cl [GW9662] (first compound 0.0001 µM, partner dose 2 µM)",95.8,90.2,78.5,82.4,76.3,92.7,46.5,106,76.6,69.4,59.9,49.3,89.1,59.3,56.9,44
"CC[C@]1(O)C[C@H]2CN(CCc3c([nH]c4ccccc34)[C@@](C(=O)OC)(c3cc4c(cc3OC)N(C=O)[C@H]3[C@@](O)(C(=O)OC)[C@H](OC(C)=O)[C@]5(CC)C=CCN6CC[C@]43[C@@H]65)C2)C1 [vincristine] + CC1(C)NC(=O)N(c2ccc([N+](=O)[O-])c(C(F)(F)F)c2)C1=O [nilutamide] (first compound 0.0001 µM, partner dose 1 µM)",98.1,94.5,60.9,95.2,92.1,92.7,81.4,95.8,47,62.9,42.1,44.4,103,56.4,68.3,56.1
"Cc1cc(Nc2cc(N3CCN(C)CC3)nc(Sc3ccc(NC(=O)C4CC4)cc3)n2)n[nH]1 [Tozasertib] + C[C@@H]1CCN(C(=O)CC#N)C[C@@H]1N(C)c1ncnc2[nH]ccc12 [CP690550] (first compound 0.006 µM, partner dose 1 µM)",102,89.1,120,86.7,96.7,90.4,83.8,99.8,101,97.2,94.4,96.2,85,98.3,89.2,99.8
"N#CC[C@H](C1CCCC1)n1cc(-c2ncnc3[nH]ccc23)cn1 [ruxolitinib] + CN(C)S(=O)(=O)c1ccc2c(c1)/C(=C/c1cc3c([nH]1)CCCC3)C(=O)N2 [SU6656] (first compound 1 µM, partner dose 0.4 µM)",106,85.4,129,76.4,120,108,107,91.7,88.6,103,71.5,113,87.4,96,105,82.1
"N#CC[C@H](C1CCCC1)n1cc(-c2ncnc3[nH]ccc23)cn1 [ruxolitinib] + CO[C@@H]1[C@H](N(C)C(=O)c2ccccc2)C[C@H]2O[C@]1(C)n1c3ccccc3c3c4c(c5c6ccccc6n2c5c31)C(=O)NC4 [Midostaurin] (first compound 1 µM, partner dose 0.08 µM)",98.5,75,80.5,99.5,97.9,88.4,102,88.9,62.8,114,75.8,72.2,83.9,112,90.8,90.5
"Cc1cc(Nc2cc(N3CCN(C)CC3)nc(Sc3ccc(NC(=O)C4CC4)cc3)n2)n[nH]1 [Tozasertib] + C=CCn1c(=O)c2cnc(Nc3ccc(N4CCN(C)CC4)cc3)nc2n1-c1cccc(C(C)(C)O)n1 [MK1775] (first compound 0.006 µM, partner dose 0.02 µM)",104,89.4,101,75.3,81.6,95.1,116,80.4,82.5,82.4,84.7,87.2,48,112,127,111
"N#CC[C@H](C1CCCC1)n1cc(-c2ncnc3[nH]ccc23)cn1 [ruxolitinib] + Cc1cc([N+](=O)[O-])ccc1NS(=O)(=O)c1cc(Cl)ccc1Cl [FH535] (first compound 1 µM, partner dose 1 µM)",101,97.9,106,210,109,109,113,94.5,120,106,100,91.3,115,97.7,79,107
"Cc1cc(Nc2cc(N3CCN(C)CC3)nc(Sc3ccc(NC(=O)C4CC4)cc3)n2)n[nH]1 [Tozasertib] + NCC(=O)Nc1ccc(-n2nc(C(F)(F)F)cc2-c2ccc3c(ccc4ccccc43)c2)cc1 [OSU03012] (first compound 0.006 µM, partner dose 1 µM)",99.3,62.9,113,93,77,93.9,47.5,105,77.2,78.8,99.1,95.7,70.5,60.9,61.1,92.3
"Cc1cc(Nc2cc(N3CCN(C)CC3)nc(Sc3ccc(NC(=O)C4CC4)cc3)n2)n[nH]1 [Tozasertib] + O=S(=O)(c1ccccc1)N(CC(F)(F)F)c1ccc(C(O)(C(F)(F)F)C(F)(F)F)cc1 [T0901317] (first compound 0.006 µM, partner dose 1.4 µM)",95.8,91.6,87.5,94,83.8,95.5,86.4,87,82,76.1,87.8,82.4,80.5,76.3,64,72.5
"CC[C@]1(O)C[C@H]2CN(CCc3c([nH]c4ccccc34)[C@@](C(=O)OC)(c3cc4c(cc3OC)N(C=O)[C@H]3[C@@](O)(C(=O)OC)[C@H](OC(C)=O)[C@]5(CC)C=CCN6CC[C@]43[C@@H]65)C2)C1 [vincristine] + O=C(O)C(=O)Nc1sc2c(c1C(=O)O)CCNC2 [TCS401] (first compound 0.0001 µM, partner dose 1.66667 µM)",78.7,88.8,55.5,137,74.4,88,53.5,94.4,65.3,57.7,65.2,46.7,64.6,67.5,56,57.5
"CC[C@]1(O)C[C@H]2CN(CCc3c([nH]c4ccccc34)[C@@](C(=O)OC)(c3cc4c(cc3OC)N(C=O)[C@H]3[C@@](O)(C(=O)OC)[C@H](OC(C)=O)[C@]5(CC)C=CCN6CC[C@]43[C@@H]65)C2)C1 [vincristine] + C[C@@H]1CCN(C(=O)CC#N)C[C@@H]1N(C)c1ncnc2[nH]ccc12 [CP690550] (first compound 0.0001 µM, partner dose 1 µM)",100,93.4,96.1,92,69.6,110,63,102,56,61.5,63.9,51.1,87,68.6,58.1,56.9
"CC[C@]1(O)C[C@H]2CN(CCc3c([nH]c4ccccc34)[C@@](C(=O)OC)(c3cc4c(cc3OC)N(C=O)[C@H]3[C@@](O)(C(=O)OC)[C@H](OC(C)=O)[C@]5(CC)C=CCN6CC[C@]43[C@@H]65)C2)C1 [vincristine] + CCc1ccc(CCOc2ccc(CC3SC(=O)NC3=O)cc2)nc1 [pioglitazone] (first compound 0.0001 µM, partner dose 2 µM)",78.2,65.7,39.6,77,63.9,60.9,51.1,73.6,41.5,43.3,53.9,35.5,76.3,67.3,58.5,46.5
